# Experimental data published in the RNAGym collection of RNA variant scans (doi:10.1073/pnas.2313332121).
# This sample is rich in variants without activity.
# B1: TPR 5TU (parent)
# chain: GGAUCUUCUCGAUCUAACAAAAAAGACAAAUCUGCCACAAAGCUUGAGAGCAUCUUCGGAUGCAGAGGCGGCAGCCUUCGGUGGCGCGAUAGCGCCAACGUUCUCAACUAUGACACGCAAAACGCGUGCUCCGUUGAAUGGAGUUUAUCAUG
# Variants of: B1
# Experiment: polymerase ribozyme fitness, log enrichment relative to wild type (log ratio); higher = more active; in vitro selection for triplet polymerase activity
# In short: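 Input and output libraries were sequenced on Illumina after a single in vitro selection round, run in triplicate on PCR-built, transcribed mutant libraries of each subunit of a heterodimeric triplet polymerase ribozyme. Selection annealed libraries to a biotinylated primer, the partner subunit and triplets, incubated them frozen at −7 °C, then gel-excised extended constructs for streptavidin-bead capture and RT-PCR. Genotypes with ≥10 input reads and ≥1 read per output were kept. Fitness is the logarithm, taken in base 2, of genotype enrichment divided by wild-type enrichment, using inverse-variance-weighted replicate averages.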
row,Variant,polymerase ribozyme fitness (log ratio)
1,A12U C35A G50U G92A G128C,≤ -4.2
2,U13C A41C U56G G59A A73U C85U,≤ -4.2
3,U13G A23U U53C U144C,≤ -4.2
4,A12U A26U G71A G88U A110C,≤ -4.2
5,U13G C36U C43U U53G C96U C105A U146A,≤ -4.2
6,A12U A23U A40U C87A G88C G117U,≤ -4.2
7,A12U A49C,≤ -4.2
8,A12U C87U,-1.1
9,A12U C85U G136U,-3.16
10,U13C A26U U90G,≤ -4.2
11,U13A U45A U56A G74A,≤ -4.2
12,U13A A22U A89G C95A,-1.67
13,A12U U13A A20U A29G C69A C76A C95A G112C A113C A150G,≤ -4.2
14,U13C C57U U78A G92C C93A C95U A122U,≤ -4.2
15,U13G A37U U55A C57A C76U G86A U127C,≤ -4.2
16,U13C G25C C76A A97U C103G C105G U139C,≤ -4.2
17,A12U C32G G58C G70A C95U G124U G152A,≤ -4.2
18,U13A A41U A64C C87A C108G,≤ -4.2
19,U13G C14U A17G C93A A98C,≤ -4.2
20,U13C C18G G42U U44A A47G,≤ -4.2
21,U13A U15C A28G U33G C79A C118U U148G,≤ -4.2

row,Variant,polymerase ribozyme fitness (log ratio)
1,A12U A147U,0.945
2,U13A A16U A29C A37U G140C,≤ -4.2
3,A12U G81A C85A G92C C93U C103G A106U C114G A147C,≤ -4.2
4,A12U A17G A22U G48C U61A G71A U145C,≤ -4.2
5,A12U C27U C38U G59U C63A C93A,-4.12
6,U13C A52G U56G C96U A137G,≤ -4.2
7,A12U A28U A37U C75A C87U,≤ -4.2
8,A12U A37C U56A A60C C76A G92A U135C G140C,≤ -4.2
9,U13C U56A A60G C95U C105G U109G C132A U145G,≤ -4.2
10,A12U A29U U31A G42A C43G G83A C87U,≤ -4.2
11,A12U A47G G62A C69G C96G C105U,≤ -4.2
12,A12U C38U G71A,≤ -4.2
13,U13A C43G C63U C75G A89C C108A A110G,≤ -4.2
14,A12U U31G C35G A64U G100A G133U,≤ -4.2
15,A12U G34C A60U G68U C95G C105A,≤ -4.2
16,A12U A30G A39G U45A U101G,≤ -4.2
17,A12U G50A C87G G136U,≤ -4.2
18,U13A G50C A52U C57G G84A C85G G94U A97G,≤ -4.2
19,U13G A24C A26G G50A C76U C123U,≤ -4.2
20,A12U A39U U53G G126U,-4.09
21,A12U U15C A17C C18G C35G C54U A66U A91U,≤ -4.2

row,Variant,polymerase ribozyme fitness (log ratio)
1,U13C A19C C35U U45A C57G U61C C69A U78G G83A U134G U151G,≤ -4.2
2,U13A G80A A107U U144G U145G C149U,≤ -4.2
3,A12U U31G C54G C93G G100U,≤ -4.2
4,U13G A24C C76U C87G C123U U139A,≤ -4.2
5,U13G A23G A66C C75G A98U C114U,≤ -4.2
6,U13G C36U A91U C99A,≤ -4.2
7,U13C C18G A21U A40C U53G A60U U61A G94U G100A G126A,≤ -4.2
8,U13A G74C C93U G124A,≤ -4.2
9,U13A A19G C27U C38A A91U G94U C129G G141U,≤ -4.2
10,U13G A23C U53A U82G G83A U104A A137C,≤ -4.2
11,U13G A19C G62C G65A U82G C87G G143A,≤ -4.2
12,A12U C54U G86U G143C,≤ -4.2
13,A12U G81C C85U G100U,≤ -4.2
14,A12U G58A A91U,≤ -4.2
15,U13G A29C G58A A106C U144C,≤ -4.2
16,A12U A39U G70A G100C A120C,≤ -4.2
17,U13G G71A C116U,≤ -4.2
18,U13G C32G G50A G80A G88A G128A U146A,≤ -4.2
19,U13A G42A A52C U55G U56A G84C C87A C105G C123G A150G,≤ -4.2
20,U13A U45A G84A,≤ -4.2
21,U13G A20U C57A G74U U148G,≤ -4.2

row,Variant,polymerase ribozyme fitness (log ratio)
1,A12U C36G G92C A147G,≤ -4.2
2,U13A A21C C27A C54A U55G A122U G136C C149G,≤ -4.2
3,U13A C14U A39U A40U A49C C57A C69A U134G U139C G141U U148G,≤ -4.2
4,U13G C38U A41C C54A U61G C87A G100C G143U,≤ -4.2
5,U13C A19C C51U A66C C103G A138U,≤ -4.2
6,A12U G65C G86C,≤ -4.2
7,A12U G48U U53A C54G G71A C75G G86A C95U A119C,≤ -4.2
8,U13A A20C U44A G68U C76U A97C A98U C99A,≤ -4.2
9,A12G U44G C85G U90A,≤ -4.2
10,U13G A23U A28U G94A,≤ -4.2
11,U13C A47C C75G A91U C93A,≤ -4.2
12,U13G A19C G48U C75A C96U A107G G126C,≤ -4.2
13,U13G A39C G62A A107U U139A A142U,≤ -4.2
14,U13G G50U C93U,-3.9
15,A12U G80U C108U,≤ -4.2
16,U13C A49G U55A C79U G92U C95A G140A,≤ -4.2
17,U13C C76A U82G C85U C118G,-2.92
18,U13C A19U U55A G83A U111G,≤ -4.2
19,U13A C32U A40C G50U G84U C95U C125G U145C,≤ -4.2
20,U13A G58U A64U C93A G141U,≤ -4.2
21,A12U A47C G48C C95U A142C,≤ -4.2
